Experimental data published in article PMC9911399, “Two distinct binding modes provide the RNA-binding protein RbFox with extraordinary sequence specificity”.
Residue numbers refer to the chain shown, from its start. The list shows a part of the results.

T1: RBFOX1 RRM (Homo sapiens, UniProt Q9NWB1 109-208)
T1 sequence: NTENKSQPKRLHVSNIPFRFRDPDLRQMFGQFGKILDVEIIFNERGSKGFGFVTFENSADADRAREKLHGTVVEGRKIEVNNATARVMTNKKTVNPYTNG

B1: CACGCUU (DNA:RNA)
RNA: GGGAGACCGGAAUUCAGAUUGUCCCACGCUUUUAAAUCCCGUCGUAGCCACCA
DNA 1: CAATCTGAATTCCGGTCTCCC
DNA 2: TGGTGGCTACGACGGGATT
B2: CGCAGGC (DNA:RNA)
RNA: B1 RNA with A26G, G28A, C29G, U30G, U31C
DNA 1: CAATCTGAATTCCGGTCTCCC
DNA 2: TGGTGGCTACGACGGGATT
B3: UUCUGUA (DNA:RNA)
RNA: B1 RNA with C25U, A26U, G28U, C29G, U31A
DNA 1: CAATCTGAATTCCGGTCTCCC
DNA 2: TGGTGGCTACGACGGGATT
B4: UUGCGCU (DNA:RNA)
RNA: B1 RNA with C25U, A26U, C27G, G28C, C29G, U30C
DNA 1: CAATCTGAATTCCGGTCTCCC
DNA 2: TGGTGGCTACGACGGGATT
B5: CAGGCCG (DNA:RNA)
RNA: B1 RNA with C27G, U30C, U31G
DNA 1: CAATCTGAATTCCGGTCTCCC
DNA 2: TGGTGGCTACGACGGGATT
B6: GAGGUGA (DNA:RNA)
RNA: B1 RNA with C25G, C27G, C29U, U30G, U31A
DNA 1: CAATCTGAATTCCGGTCTCCC
DNA 2: TGGTGGCTACGACGGGATT
B7: AUAGAUC (DNA:RNA)
RNA: B1 RNA with C25A, A26U, C27A, C29A, U31C
DNA 1: CAATCTGAATTCCGGTCTCCC
DNA 2: TGGTGGCTACGACGGGATT
B8: GAUUGGC (DNA:RNA)
RNA: B1 RNA with C25G, C27U, G28U, C29G, U30G, U31C
DNA 1: CAATCTGAATTCCGGTCTCCC
DNA 2: TGGTGGCTACGACGGGATT
B9: GCGCUGG (DNA:RNA)
RNA: GGGAGACCGGAAUUCAGAUUGUCCGCGCUGGUUAAAUCCCGUCGUAGCCACCA
DNA 1: CAATCTGAATTCCGGTCTCCC
DNA 2: TGGTGGCTACGACGGGATT
B10: UUCGUAA (DNA:RNA)
RNA: B1 RNA with C25U, A26U, C29U, U30A, U31A
DNA 1: CAATCTGAATTCCGGTCTCCC
DNA 2: TGGTGGCTACGACGGGATT
B11: AAUCGAG (DNA:RNA)
RNA: B9 RNA with G25A, C26A, G27U, U29G, G30A
DNA 1: CAATCTGAATTCCGGTCTCCC
DNA 2: TGGTGGCTACGACGGGATT
B12: CGCUUAA (DNA:RNA)
RNA: B1 RNA with A26G, G28U, C29U, U30A, U31A
DNA 1: CAATCTGAATTCCGGTCTCCC
DNA 2: TGGTGGCTACGACGGGATT
B13: CAAGCGG (DNA:RNA)
RNA: B1 RNA with C27A, U30G, U31G
DNA 1: CAATCTGAATTCCGGTCTCCC
DNA 2: TGGTGGCTACGACGGGATT
B14: AAAGCCC (DNA:RNA)
RNA: B1 RNA with C25A, C27A, U30C, U31C
DNA 1: CAATCTGAATTCCGGTCTCCC
DNA 2: TGGTGGCTACGACGGGATT
B15: CGAAAAU (DNA:RNA)
RNA: B1 RNA with A26G, C27A, G28A, C29A, U30A
DNA 1: CAATCTGAATTCCGGTCTCCC
DNA 2: TGGTGGCTACGACGGGATT
B16: GGUUAGU (DNA:RNA)
RNA: B9 RNA with C26G, G27U, C28U, U29A, G31U
DNA 1: CAATCTGAATTCCGGTCTCCC
DNA 2: TGGTGGCTACGACGGGATT
B17: AUUUUGU (DNA:RNA)
RNA: B9 RNA with G25A, C26U, G27U, C28U, G31U
DNA 1: CAATCTGAATTCCGGTCTCCC
DNA 2: TGGTGGCTACGACGGGATT
B18: UACUUUU (DNA:RNA)
RNA: B1 RNA with C25U, G28U, C29U
DNA 1: CAATCTGAATTCCGGTCTCCC
DNA 2: TGGTGGCTACGACGGGATT
B19: UUAGCAG (DNA:RNA)
RNA: B1 RNA with C25U, A26U, C27A, U30A, U31G
DNA 1: CAATCTGAATTCCGGTCTCCC
DNA 2: TGGTGGCTACGACGGGATT
B20: GACUUCA (DNA:RNA)
RNA: B1 RNA with C25G, G28U, C29U, U30C, U31A
DNA 1: CAATCTGAATTCCGGTCTCCC
DNA 2: TGGTGGCTACGACGGGATT
B21: UUUAAGG (DNA:RNA)
RNA: B9 RNA with G25U, C26U, G27U, C28A, U29A
DNA 1: CAATCTGAATTCCGGTCTCCC
DNA 2: TGGTGGCTACGACGGGATT
B22: AGCUUAG (DNA:RNA)
RNA: B9 RNA with G25A, C26G, G27C, C28U, G30A
DNA 1: CAATCTGAATTCCGGTCTCCC
DNA 2: TGGTGGCTACGACGGGATT
B23: AAGGCUG (DNA:RNA)
RNA: B1 RNA with C25A, C27G, U31G
DNA 1: CAATCTGAATTCCGGTCTCCC
DNA 2: TGGTGGCTACGACGGGATT
B24: GCUGAUG (DNA:RNA)
RNA: B9 RNA with G27U, C28G, U29A, G30U
DNA 1: CAATCTGAATTCCGGTCTCCC
DNA 2: TGGTGGCTACGACGGGATT
B25: UCCUAUC (DNA:RNA)
RNA: B1 RNA with C25U, A26C, G28U, C29A, U31C
DNA 1: CAATCTGAATTCCGGTCTCCC
DNA 2: TGGTGGCTACGACGGGATT
B26: UGACCGA (DNA:RNA)
RNA: B9 RNA with G25U, C26G, G27A, U29C, G31A
DNA 1: CAATCTGAATTCCGGTCTCCC
DNA 2: TGGTGGCTACGACGGGATT
B27: CUUGCCU (DNA:RNA)
RNA: B1 RNA with A26U, C27U, U30C
DNA 1: CAATCTGAATTCCGGTCTCCC
DNA 2: TGGTGGCTACGACGGGATT
B28: CUCCGUA (DNA:RNA)
RNA: B1 RNA with A26U, G28C, C29G, U31A
DNA 1: CAATCTGAATTCCGGTCTCCC
DNA 2: TGGTGGCTACGACGGGATT
B29: UAUUGCA (DNA:RNA)
RNA: B1 RNA with C25U, C27U, G28U, C29G, U30C, U31A
DNA 1: CAATCTGAATTCCGGTCTCCC
DNA 2: TGGTGGCTACGACGGGATT
B30: UACUGGA (DNA:RNA)
RNA: B1 RNA with C25U, G28U, C29G, U30G, U31A
DNA 1: CAATCTGAATTCCGGTCTCCC
DNA 2: TGGTGGCTACGACGGGATT
B31: CAGAAUA (DNA:RNA)
RNA: B1 RNA with C27G, G28A, C29A, U31A
DNA 1: CAATCTGAATTCCGGTCTCCC
DNA 2: TGGTGGCTACGACGGGATT

These binders were tested against T1, RBFOX1 RRM (assay: EMSA; HiTS-Eq, 1 nM pool, 10 min; buffer printed only for the single-RNA assays: 10 mM Tris pH 7.5, 150 mM NaCl, 3.4 mM EDTA, 0.001% NP-40, 30 C). Conditions: tags: His6 N-terminal (pET28a); label: 5' 32P.
In short: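 Purified RbFox RRM, wild type or mutant, was incubated for 10 min in 50 µL with 1 nM of a 5′-radiolabelled RNA pool carrying 7 randomized nucleotides, whose flanks were annealed to DNA oligonucleotides, over a series of increasing protein concentrations. Unbound RNA was resolved on 8% native PAGE, cut out, reverse-transcribed, barcoded by PCR and sequenced on an Illumina HiSeq 2500. Relative association constants were derived from changes in read counts for each RNA species versus the control reaction and normalised to the cognate motif.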

Binder	binding signal
B1	0.00679 KA relative to UGCAUGU
B2	0.015 KA relative to UGCAUGU
B3	0.00899 KA relative to UGCAUGU
B4	0.0189 KA relative to UGCAUGU
B5	0.00997 KA relative to UGCAUGU
B6	0.0193 KA relative to UGCAUGU
B7	0.00184 KA relative to UGCAUGU
B8	0.0202 KA relative to UGCAUGU
B9	0.0322 KA relative to UGCAUGU
B10	0.00742 KA relative to UGCAUGU
B11	0.00867 KA relative to UGCAUGU
B12	0.0041 KA relative to UGCAUGU
B13	0.00642 KA relative to UGCAUGU
B14	0.00158 KA relative to UGCAUGU
B15	0.00237 KA relative to UGCAUGU
B16	0.0134 KA relative to UGCAUGU

Binder	binding signal
B17	0.0131 KA relative to UGCAUGU
B18	0.00807 KA relative to UGCAUGU
B19	0.00928 KA relative to UGCAUGU
B20	0.00662 KA relative to UGCAUGU
B21	0.0043 KA relative to UGCAUGU
B22	0.00861 KA relative to UGCAUGU
B23	0.0149 KA relative to UGCAUGU
B24	0.0239 KA relative to UGCAUGU
B25	0.00355 KA relative to UGCAUGU
B26	0.0143 KA relative to UGCAUGU
B27	0.0163 KA relative to UGCAUGU
B28	0.00175 KA relative to UGCAUGU
B29	0.0255 KA relative to UGCAUGU
B30	0.00358 KA relative to UGCAUGU
B31	0.00322 KA relative to UGCAUGU
